The structures appear in SMILES notation. Where “and” joins values, the source holds several entries; their conditions need not be identical. Equal values may be shown once.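 Dose response: 5 concentrations. Exposure: 48 h. Format: 96-well plates. Endpoint: linear interpolation; highest concentration if not reached. Abbreviation: GI50, concentration required for 50% inhibition of growth.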 Calls of active or inactive are those of the source. Cut-off read from the data, not from the text of the source: active = GI50 up to about 1.1 µM and inactive = higher.

In the assay the test system is NCI-H322M. The experiment in a line: NCI anticancer screen, dose series, 48 h.
Turning to `COc1cc(/C=C(\C)c2ccc3c(c2)OCO3)cc(OC)c1OC`, the GI50 was inactive: 94.8 µM.
Regarding `O=C1/C(=C/c2ccc(Cl)c(Cl)c2)CNC/C1=C\c1ccc(Cl)c(Cl)c1`, the GI50 is inactive: 17.9 µM.
For `Cc1cc(O)nc(/N=C(\N)Nc2ccc(Cl)cc2)n1` the value was inactive: > 100 µM; for `O=C1Nc2ccccc2/C1=N/NC(=S)Nc1cccc(Cl)c1`, inactive: 14.9 µM.
The figure for `COc1cc(OC)c(OC)cc1/C=C1\C=Cc2ccccc21` is inactive: 24.4 µM; for `COC1OC(C(=O)CP(=O)(OC)OC)C(OCc2ccccc2)C(OCc2ccccc2)C1OCc1ccccc1` (stereo unspecified) it is inactive: 16 µM and inactive: 16.9 µM.
In the case of `CCOC(=O)C(NC(=O)c1ccccc1)(Nc1ccc(S(=O)(=O)Nc2ncccn2)cc1)C(F)(F)F` (stereo unspecified), the GI50 is inactive: > 100 µM.
The figure for `N#Cc1c(-c2ccccc2)c(/N=N/c2ccc(F)cc2)c(=O)n2c1[nH]c1ccccc12` is inactive: 2.05 µM; for `CC(C)=CCc1cc2c(cc1O)OC[C@H]1c3cc4c(cc3O[C@@H]21)OCO4` it is inactive: 63.7 µM.
Turning to `CCCCOC(=O)NC(=O)c1cn(CCCOC(=O)CCCCCCCCC(=O)OCCCn2cc(C(=O)NC(=O)OCCCC)c(=O)n(C)c2=O)c(=O)n(C)c1=O`, the GI50 is inactive: > 100 µM.
The figure for `O=C(CSc1n[nH]c(=O)[nH]c1=O)NNC(=O)c1cccc2nc3ccccc3nc12` is inactive: 29.9 µM; for `CN(C(=O)c1ccc2c(c1)sc1c(=O)n(C)c3ccccc3c12)c1ccccc1` it is inactive: > 100 µM.
For `O=C(O)/C=C/c1c[nH]c(=O)[nH]c1=O` the value was inactive: > 250 µM; for `CC(=O)c1c(O)c2c([nH]c1=O)CCCC2`, inactive: 24.1 µM; for `C=CC[C@@]1(C#N)C[C@H](C[C@]2(C#N)C[C@H](CCl)OC(C)(C)O2)OC(C)(C)O1`, inactive: > 100 µM.
For `CCOc1ccc(/N=C(/NC(=O)c2ccccc2)SC)cc1` the value was inactive: > 100 µM.
Take `NCc1ccccc1C1CSCSC1`: the GI50 is inactive: > 100 µM.
For `CCOC(=O)C1N(S(=O)(=O)c2ccc(C)cc2)CCC12C(c1ccc(OC)c(OC)c1)=Nc1ccccc12` (stereo unspecified) the value was inactive: > 100 µM; for `CN(C)CCCN1c2ccccc2CCc2cccc([N+](=O)[O-])c21`, inactive: 24.2 µM.
The figure for `Cc1nn(-c2ccccc2)c(C)c1/C=N/N=C1\SCC(=O)N1c1ccccc1` is inactive: 29.5 µM; for `C=C(C(=O)OC1C(CO)OC(OCC2CC[C@@H]3C[C@]4(OC(=O)C3=C)C(C)=CC(=O)C24)C(O)C1O)[C@@H]1CCC(CO)C2C(=O)C=C(C)[C@@]2(O)C1` (stereo partly specified) it is inactive: 7.28 µM; for `Cn1c2ccc(C3=NCCN3)cc2c2cc(C3=NCCN3)ccc21` it is inactive: 12.6 µM.
For `CN1CCN(C2CC(=O)c3c(Cl)sc(Cl)c32)CC1` (stereo unspecified) the value was inactive: 26.4 µM; for `CC(NS(=O)(=O)c1ccc([N+](=O)[O-])cc1)C(=O)O` (stereo unspecified), inactive: > 100 µM.
Consider `C1C2CC3CC1CC(c1nn4c(C56CC7CC(CC(C7)C5)C6)nnc4s1)(C2)C3`, for which the GI50 was inactive: > 100 µM.
Consider `O=C1CC2(CCN(Cc3ccccc3)CC2)C(=O)N1N1CCCCC1`, for which the GI50 was inactive: > 100 µM.
For `O=C1NC(=O)C(CCO)(c2ccccc2)C(=O)N1` the value was inactive: > 100 µM; for `C=CC[C@@]1(C(=O)OC)[C@H](Sc2ccccc2)C1(C)C`, inactive: > 100 µM; for `COc1ccc(C(O)/C(=N/N)c2nc3ccc(Cl)cc3nc2O)cc1` (stereo unspecified), inactive: > 100 µM.
For `Cc1cccc2c(N)c3cccc(C(=O)NCC[N+](C)(C)Cc4sccc4[N+](=O)[O-])c3nc12` the value was inactive: 15.3 µM; for `Cc1ccccc1C1=[N+]([O-])c2ccccc2C1=O`, inactive: 34.2 µM.
The figure for `O=c1[nH]cc(/C=N\Nc2ccccc2)c(=O)[nH]1` is inactive: > 100 µM; for `C=CC1(c2ccc(Br)cc2)OCCCO1` it is inactive: > 100 µM.
Regarding `COC(CN(C(=O)c1ccccc1)C1CCC2(SCCS2)c2[nH]c3ccccc3c21)OC` (stereo unspecified), the GI50 was inactive: 35.8 µM.
The figure for `CC(C)C(=O)NCC[C@@H](CNC(=O)OC(C)(C)C)NC(=O)OC(C)(C)C` is inactive: > 100 µM; for `COc1ccc(C[C@H](N)C(=O)N2C[C@@H](CO)C[C@@H](n3ccc(=O)[nH]c3=O)C2)cc1` it is inactive: > 100 µM.
The figure for `O=C1Nc2cccc(Cl)c2/C1=C\c1c(Cl)nc2sccn12` is inactive: > 100 µM; for `O=C(c1ccccc1)[C@H]1Nc2ccc(Cl)cc2[C@H]2CCC[C@@H]12` it is inactive: 64 µM.
Turning to `Cc1nc(-n2nc(-c3ccccc3)cc2-c2ccccc2)sc1C(/C=C/c1ccc([N+](=O)[O-])cc1)=N/NC(N)=S`, the GI50 is inactive: 48.8 µM.
The figure for `COc1c(C)c(C/C=C(\C)CCCCO[Si](C(C)C)(C(C)C)C(C)C)c(OC)c2ccccc12` is inactive: > 100 µM.
For `CC(=O)c1cc([N+](=O)[O-])ccc1OCC(=O)O` the value was inactive: > 100 µM.
`COC(=O)[C@H]1[C@H](OC(=O)[C@@H](OC)c2ccccc2)ON2CC[C@@H](OC(=O)c3ccccc3)[C@H]12`: the GI50 is inactive: > 100 µM.
For the compound `Clc1ccc(-c2c(C3=NCCCN3)nnn2-c2ccccc2)cc1`, the GI50 was inactive: > 100 µM.
For `N#CC(/N=N/c1ccc(Cl)cc1)c1nc2ccccc2o1` (stereo unspecified) the value was inactive: > 100 µM; for `Cn1cc(-c2ccc(CCOC3CCCCO3)cc2)c2c(C#N)cccc21` (stereo unspecified), inactive: > 100 µM; for `CC(C(=O)NCNC(=O)c1ccccc1)C(=O)NCc1ccccc1` (stereo unspecified), inactive: > 100 µM.
The figure for `COC(=O)c1c2c(cc3c1CC1(C3)Cc3cc4c(c(C(C)=O)c3C1)CCC4)C=CC2` (stereo unspecified) is inactive: > 31.6 µM; for `COc1ccc(-c2nc3ccccc3c(=S)n2OC(C)=O)cc1` it is inactive: 4.61 µM; for `Cc1ccc(O)c(C(=O)/C=C/c2ccccc2)c1` it is inactive: > 100 µM.
The figure for `CN1C=COC1N=C1CCCCC1` (stereo unspecified) is inactive: > 100 µM.
Take `C=C1c2[nH]c3ccccc3c2CC(C(=O)O)N1C(O)c1ccc(S(=O)(=O)O)cc1` (stereo unspecified): the GI50 is inactive: > 100 µM.
The figure for `NC(=O)c1cccc(OCC(O)CO)c1` (stereo unspecified) is inactive: > 100 µM; for `COc1ccc(C2C(Cl)C(=O)N2NC(=O)Cc2ccccc2)cc1OC` (stereo unspecified) it is inactive: > 100 µM; for `Cc1ccc(NC(=O)CCc2nc(N)nc(N)c2-c2ccccc2)cc1C` it is inactive: > 100 µM.
Consider `CC(=O)OC1COC(Nc2nc(N)n(C)c(=O)c2N=O)C(OC(C)=O)C1OC(C)=O` (stereo unspecified), for which the GI50 is inactive: > 10 µM.
For `Cc1ccc(NC(=O)CC(=O)N2N=C(N(c3ccccc3)c3ccccc3)CC2c2ccccc2)cc1` (stereo unspecified) the value was inactive: > 100 µM; for `CSc1nncc2[nH]cnc12`, inactive: > 100 µM.
The figure for `Nc1ccc(C(=O)N/C(=C\C=C\c2ccco2)c2nc3c(O)nc(S)nc3[nH]2)cc1` is inactive: > 100 µM; for `c1ccc(CCCC2Sc3cccc4cccc(c34)S2)cc1` it is inactive: > 100 µM.
The figure for `CN(C)CC1CCCC1=O` (stereo unspecified) is inactive: 24.8 µM; for `CC1=CC(=O)/C(=C/n2c(=S)[nH]c3ccc([N+](=O)[O-])cc32)C(=O)O1` it is inactive: > 100 µM.
On to `CCOc1cc(C2SCC(=O)N2c2ccc3c(c2)Oc2c(Cl)c4c(c(Cl)c2=N3)Oc2cc(N3C(=O)CSC3c3ccc(O)c(OCC)c3)ccc2N=4)ccc1O` (stereo unspecified), for which the GI50 was inactive: 55.3 µM.
For the compound `C#CCOC(=O)C(N)CC(N)=O` (stereo unspecified), the GI50 was inactive: > 100 µM.
As for `CCOC(OCC)(OCC)C(Br)CC` (stereo unspecified), the GI50 is inactive: > 100 µM.
`CCCCN1C(=O)CC2[C@@H]3CCc4cc(OC(C)=O)ccc4C3CC[C@]2(C)C1=O` (stereo partly specified): the GI50 is inactive: > 10 µM.
As to `CCOS(=O)(=O)c1ccc(-c2c3nc(c(-c4ccc(S(=O)(=O)OCC)cc4)c4ccc([nH]4)c(-c4ccc(S(=O)(=O)OCC)cc4)c4nc(c(-c5ccc(S(=O)(=O)OCC)cc5)c5ccc2[nH]5)C=C4)C=C3)cc1`, the GI50 was inactive: 28.9 µM.
On to `O=S(=O)(SC1=NCCN1)c1ccc2ccccc2c1`, for which the GI50 was inactive: 41.6 µM.
The figure for `CC12CCC(/C(=N/c3ccc([N+](=O)[O-])cc3)C1=O)C2(C)C` (stereo unspecified) is inactive: 38.9 µM; for `COc1cccc(N2C(=O)CSC2c2c[nH]c3ccccc23)c1` (stereo unspecified) it is inactive: > 100 µM.
The figure for `COc1ccc(/C=C/C(=O)C(C)C)cc1` is inactive: 71.9 µM; for `CSc1nc(-c2ccccc2)c2c(n1)-c1ccccc1CC2` it is inactive: > 100 µM.
Take `CC1=C(O)C(=O)C=C2C1=CC=C1[C@@]2(C)CC[C@@]2(C)C3C[C@@H](C)C(=O)[C@@H](O)[C@]3(C)CC[C@]12C` (stereo partly specified): the GI50 is inactive: 13.8 µM.
For `CSc1ccc(/C=C2\N=C(c3ccccc3)N(/N=C3\C(=O)Nc4ccccc43)C2=O)cc1` the value was inactive: > 100 µM; for `CC(NC(=O)Cc1ccccc1)NC(=O)C(C)C(=O)Nc1ccccc1` (stereo unspecified), inactive: > 100 µM; for `COC(=O)Cn1cnc2c(Cl)nc(Nc3ccccc3)nc21`, inactive: 25.4 µM.
The figure for `O=C1/C(=C/c2ccc(O)c(O)c2)CC/C1=C\c1ccc(O)c(O)c1` is inactive: > 21.2 µM; for `CCCC(=O)C1=C(O)C(Cc2c(O)c(C)c(O)c(C(=O)CCC)c2O)=C(O)C(C)(C)C1=O` it is inactive: 22.2 µM.
The figure for `CN(C)c1ccc2c(c1)C(=O)N(OS(=O)(=O)c1ccc([N+](=O)[O-])cc1)C2=O` is inactive: > 100 µM; for `CC(C)C[C@H](NC(=O)[C@H](Cc1cccc2ccccc12)NC(=O)N1CCOCC1)B(O)O` it is active: < 0.0206 µM.
Consider `CCc1nc(N)nc(N)c1-c1ccc(NCCN)c([N+](=O)[O-])c1`, for which the GI50 was inactive: 8.13 µM.
For `CCc1ccc(NCc2cc(OC)c(OC)c(OC)c2)cc1` the value was inactive: 1.97 µM.

The record behind these values is ChEMBL document CHEMBL1201862, “PubChem BioAssay data set” (2004).
